According to publication PMC8866485, “Cell surface nucleolin is a novel ADAMTS5 receptor mediating endothelial cell apoptosis” (Cell Death & Disease, 2022):
Results are given in words; binding and its absence hold for the method and conditions named. For part of these data: Binding seen in cells or lysates may run through a third protein. Some results given as binding are weak or reduced against the parent protein; the word gives no strength. Tags and fused reporters may be left off the sequences shown.

The chains behind the UniProt entries cited, without tags or fusion partners. Where a name states a change or a piece, a line headed by the entry shows the natural chain unless it says otherwise. A line that says so, or that is headed by a name, gives the form on record, which may keep a tag or linker. Residues count along the entry.
UniProt Q14764: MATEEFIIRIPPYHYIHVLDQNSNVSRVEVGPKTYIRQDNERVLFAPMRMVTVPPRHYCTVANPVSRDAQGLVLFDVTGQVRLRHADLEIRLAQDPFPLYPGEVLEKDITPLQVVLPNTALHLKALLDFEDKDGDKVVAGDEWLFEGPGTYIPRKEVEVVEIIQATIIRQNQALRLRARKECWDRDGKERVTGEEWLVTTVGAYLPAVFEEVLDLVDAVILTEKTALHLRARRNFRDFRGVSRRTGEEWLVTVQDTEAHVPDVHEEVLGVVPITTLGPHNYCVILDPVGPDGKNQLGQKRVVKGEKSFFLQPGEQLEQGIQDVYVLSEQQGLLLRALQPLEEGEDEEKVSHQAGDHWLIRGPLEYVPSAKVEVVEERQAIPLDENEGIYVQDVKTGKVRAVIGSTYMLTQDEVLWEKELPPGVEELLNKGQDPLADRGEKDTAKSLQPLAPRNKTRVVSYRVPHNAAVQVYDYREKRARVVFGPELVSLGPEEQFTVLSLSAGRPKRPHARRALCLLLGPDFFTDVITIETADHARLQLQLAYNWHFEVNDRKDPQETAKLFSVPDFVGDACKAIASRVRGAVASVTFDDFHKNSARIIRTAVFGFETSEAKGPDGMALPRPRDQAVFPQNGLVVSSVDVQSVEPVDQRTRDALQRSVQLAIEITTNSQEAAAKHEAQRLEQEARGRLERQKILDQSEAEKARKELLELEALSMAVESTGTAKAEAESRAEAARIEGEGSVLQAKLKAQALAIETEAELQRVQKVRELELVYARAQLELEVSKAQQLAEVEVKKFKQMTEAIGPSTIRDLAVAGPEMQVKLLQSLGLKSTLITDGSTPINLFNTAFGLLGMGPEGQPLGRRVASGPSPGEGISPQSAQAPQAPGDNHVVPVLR
UniProt P19338: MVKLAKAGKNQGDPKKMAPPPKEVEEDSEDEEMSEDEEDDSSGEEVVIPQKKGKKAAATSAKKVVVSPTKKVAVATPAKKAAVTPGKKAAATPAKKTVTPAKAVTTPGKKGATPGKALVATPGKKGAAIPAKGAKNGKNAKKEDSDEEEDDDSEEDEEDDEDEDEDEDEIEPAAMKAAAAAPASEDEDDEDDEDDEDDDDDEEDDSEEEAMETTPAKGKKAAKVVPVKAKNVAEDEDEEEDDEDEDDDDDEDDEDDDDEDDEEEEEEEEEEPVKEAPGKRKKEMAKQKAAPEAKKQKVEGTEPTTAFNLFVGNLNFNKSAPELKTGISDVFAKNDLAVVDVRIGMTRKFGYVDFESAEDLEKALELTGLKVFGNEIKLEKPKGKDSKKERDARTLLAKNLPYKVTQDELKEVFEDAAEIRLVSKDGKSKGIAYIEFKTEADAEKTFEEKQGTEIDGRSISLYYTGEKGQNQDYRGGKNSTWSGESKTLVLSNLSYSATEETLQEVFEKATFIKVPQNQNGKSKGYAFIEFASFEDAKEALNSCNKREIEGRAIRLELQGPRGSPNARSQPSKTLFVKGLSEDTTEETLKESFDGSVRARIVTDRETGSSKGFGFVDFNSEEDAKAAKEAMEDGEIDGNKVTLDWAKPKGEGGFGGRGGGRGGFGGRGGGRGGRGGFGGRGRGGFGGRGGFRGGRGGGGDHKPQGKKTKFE
FLAG-tagged NCLΔGAR (1-652): residues 1-652 of P19338
FLAG-tagged NCLΔC (1-269): residues 1-269 of P19338
FLAG-tagged NCLΔN (270-710): residues 270-710 of P19338
FLAG-tagged NCL-RBD (270-652): residues 270-652 of P19338

How the values were obtained:
[1] = biological target: Recombinant human MVP (rhMVP) (human) (UniProt Q14764); assay: co-IP; two-way co-IP (both directions) with purified recombinant proteins; both purified
[2] = biological target: Endogenous nucleolin (NCL) of HUVECs (human (endogenous in HUVEC)) (UniProt P19338); assay: pull-down; surface proteins of intact HUVECs biotinylated (Sulfo-NHS-LC-Biotin), cells treated with 250 nM TS5-p45 for 1 h; streptavidin magnetic beads on WCL and nuclear fractions; blots for NCL and His; also after 3 mM CaCl2 or 5 mM EGTA pre-treatment; only the binder purified
[3] = biological target: Endogenous nucleolin (NCL) of HUVECs (human (endogenous in HUVEC)) (UniProt P19338); assay: flow cytometry on cells; unfixed, non-permeabilised HUVECs incubated with TS5-p45 at 4 C for 4 h; anti-His-FITC detection; untransfected, siCtrl- and siNCL-transfected cells; only the binder purified
[4] = biological target: FLAG-tagged full-length NCL (NCL-FL 1-710) (UniProt P19338); assay: co-IP; FLAG-tagged NCL or truncates (2 mg HEK293T WCL/reaction) incubated with His-tagged TS5-p45 (1 ug/reaction) at 4 C overnight; anti-FLAG M2 affinity gel; anti-FLAG and anti-His blots; only the binder purified
[5] = biological target: FLAG-tagged NCL-RBD (270-652) (UniProt P19338); assay: as above
[6] = biological target: FLAG-tagged NCLΔN (270-710) (UniProt P19338); assay: as above
[7] = biological target: FLAG-tagged NCLΔGAR (1-652) (UniProt P19338); assay: as above
[8] = biological target: Endogenous nucleolin (NCL) of HUVECs (human (endogenous in HUVEC)) (UniProt P19338); assay: ELISA; cellular ELISA: fixed, non-permeabilised HUVECs treated with TS5-p45 at room temperature for 2 h; anti-His detection; untransfected, siCtrl- and siNCL-transfected cells; only the binder purified
[9] = biological target: FLAG-tagged NCLΔC (1-269) (UniProt P19338); assay: condition: 1 ug TS5-p45/reaction with 2 mg WCL/reaction; co-IP; FLAG-tagged NCL or truncates (2 mg HEK293T WCL/reaction) incubated with His-tagged TS5-p45 (1 ug/reaction) at 4 C overnight; anti-FLAG M2 affinity gel; anti-FLAG and anti-His blots; only the binder purified

B1: Recombinant human TS5-p45 (C-terminal His-tagged, Ser262-Pro622 truncate of ADAMTS5) (domain or fragment, UniProt Q9UNA0 262-622, looked up)
chain: SISRARQVELLLVADASMARLYGRGLQHYLLTLASIANRLYSHASIENHIRLAVVKVVVLGDKDKSLEVSKNAATTLKNFCKWQHQHNQLGDDHEEHYDAAILFTREDLCGHHSCDTLGMADVGTICSPERSCAVIEDDGLHAAFTVAHEIGHLLGLSHDDSKFCEETFGSTEDKRLMSSILTSIDASKPWSKCTSATITEFLDDGHGNCLLDLPRKQILGPEELPGQTYDATQQCNLTFGPEYSVCPGMDVCARLWCAVVRQGQMVCLTKKLPAVEGTPCGKGRICLQGKCVDKTKKKYYSTSSHGNWGSWGSWGQCSRSCGGGVQFAYRHCNNPAPRNNGRYCTGKRAIYRSCSLMPCP
notes: ADAMTS5 (A Disintegrin and Metalloproteinase with Thrombospondin Motifs 5, aggrecanase-2), human, residues Ser262-Pro622; also called 45 kDa truncate of ADAMTS5; source: bought: R&D Systems (2198-AD-01M); not shown: His tag, C-terminal, kept
binding [1]: no binding
binding [2]: binds
binding [3]: binds
binding [4]: binds
binding [5]: binds
binding [6]: binds
binding [7]: binds
binding [8]: binds
binding [9]: no binding
